Results filed as inconclusive are left out. Calls come from the whole dose curve; as a rule, active = well fitted inhibition curve with a large enough effect; inconclusive = small, poorly fitted or top-dose-only effect; inactive = flat fitted curve, though single readings scatter. Certain results were filed several times, with different values. The other results are left out here. An entry can have further records. Values that stand side by side repeat one measurement in other runs, samples, wells, individuals or studies.
Experiment: Counterscreen Assay for Enhancers of SMN2 Splice Variant Expression: Modulation of SMN1 Expression
Settings: HEK293 SMN1-luciferase reporter, luminescence, 30-36 h
Description: NIH Chemical Genomics Center [NCGC] NIH Molecular Libraries Probe Production centers Network [MLPCN] MLPCN Grant: R03 MH084179-01 Assay Submitter (PI): Elliot Androphy NCGC Assay Overview: Spinal muscular atrophy (SMA) is caused by insufficient levels of the survival motor neuron protein SMN. The SMN locus on chromosome 5q13 contains two inverted copies of SMN called SMN1 and SMN2 which are 99% identical at the amino acid level. SMN1 is a fully functional protein and SMN2 skips exon 7 90% of the time. Skipping of exon 7 produces non-functional protein product. 10% of the SMN2 protein includes exon 7 and is fully functional. In the SMA disease state, mutations in the SMN1 locus are the cause of the disease state. Because only 10% of SMN2 is of the fully functional form, it is not sufficient to overcome the deficiency produced by the loss of the SMN1 product. A therapy that either increase the amount of SMN2 product made or to increase the inclusion of exon 7 has been proposed for the treatment of SMA. We have designed an assay to identify small molecules that can increase the amount of functional SMN2 product by appending a luciferase reporter gene after the native SMN2 gene, such that inclusion of exon 7 in the expressed product places the luciferase sequence in frame, thus generating functional luciferase enzyme. […]

**Q.** For `COc1c(C)c2c(c(O)c1C/C=C(\C)CCC(=O)O)C(=O)OC2`, which Potency is on record?
**A.** active: 708 nM, 398 nM, 1.26 µM, 316 nM [separate samples]

From PubChem BioAssay AID1739 (National Center for Advancing Translational Sciences (NCATS), 2009)
